The source of these data is the supplement of paper PMC4967469.

pIC50: −log10 of the molar value. IC50 is the fitted dose that halves viability relative to control wells, and lower means more sensitive; fits outside the tested doses are given as limits. For AUC the same curve is integrated over the 256-fold range of doses and scaled to a fraction: 1 means no effect, lower means more sensitive. A top dose marked as inferred is not printed in the source and was worked back from the curve model. For some assays here: An entry number marks a drug with two screens in the source, which often give different values. Bounds are passed on as bounds.

Compound in the first experiment: Cc1cccc(-c2[nH]c(C(C)(C)C)nc2-c2ccc3nccnc3c2)n1 [SB-525334]
Briefly: Viability of human cancer cell lines after 72 h of drug (GDSC screen). Particulars: top dose 20 µM; top dose inferred. The procedure: (§1)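 Human cancer cell lines in 384-well plates, medium with 10% serum, drug for 72 h over a 256-fold dose range (nine 2-fold or five 4-fold steps up to the top dose). Adherent lines were fixed and stained with the nucleic acid dye Syto60, suspension lines read with resazurin; signal relative to control wells, capped at 0 and 100%. One two-parameter sigmoid per drug and line, fitted in a mixed model over all curves with the slope shared within a line.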
In the case of VAL (B-cell lymphoma, suspension), the AUC is 0.893 and the pIC50 is less than 4.70.

Compound in another experiment: Cc1cc(N2CCOCC2)cc2[nH]c(-c3c(NC[C@@H](O)c4cccc(Cl)c4)cc[nH]c3=O)nc12 [BMS-536924]
Described as above. As to conditions: top dose 4 µM; screen: GDSC drug entry 1091; top dose inferred. The procedure: as §1
As for D-392MG (glioma, adherent), the AUC came out at 0.949 and the pIC50 was less than 5.40.
As for D-542MG (glioma, adherent), the AUC worked out at 0.978 and the pIC50 was less than 5.40.
The matching figures for HCC2998 (large intestine, adherent): 0.924 and less than 5.40.
The matching figures for “HEL (acute myeloid leukaemia, semi-adherent)”: 0.956 and less than 5.40.
The matching figures for “JURL-MK1 (chronic myeloid leukaemia, suspension)”: 0.983 and less than 5.40.
Turning to NB12 (neuroblastoma, adherent), the AUC came to 0.844 and the pIC50 was less than 5.40.
Regarding “NCI-H1975 (lung adenocarcinoma, adherent)”, the AUC came out at 0.853 and the pIC50 is 5.41.
The matching figures for “NCI-H2227 (small cell lung carcinoma, semi-adherent)”: 0.942 and less than 5.40.
The matching figures for RC-K8 (B-cell lymphoma, suspension): 0.992 and less than 5.40.
The matching figures for “SHP-77 (small cell lung carcinoma, semi-adherent)”: 0.956 and less than 5.40.
Consider SNU-C2B (large intestine, adherent), for which the AUC came to 0.906 and the pIC50 is less than 5.40.
The matching figures for SW982 (soft tissue, adherent): 0.897 and less than 5.40.
The matching figures for TK (B-cell lymphoma, suspension): 0.954 and less than 5.40.
For the cell line VAL (B-cell lymphoma, suspension), the AUC came out at 0.95 and the pIC50 is less than 5.40.

The experiment is the same for the next values; noted with them: top dose 5.12 µM; screen: GDSC drug entry 62.
For BC-3 (B-cell lymphoma, suspension), the AUC is 0.842 and the negative logarithm of the IC50 (pIC50) was 5.52.
The matching figures for CAL-148 (breast, suspension): 0.986 and less than 5.29.
The matching figures for EW-12 (Ewing sarcoma, suspension): 0.978 and less than 5.29.
The matching figures for HCC1599 (breast, suspension): 0.966 and less than 5.29.
As to “HCC-33 (small cell lung carcinoma, adherent)”, the AUC worked out at 0.986 and the pIC50 was less than 5.29.
The matching figures for “HEL (acute myeloid leukaemia, semi-adherent)”: 0.777 and 5.76.
The matching figures for KP-N-YS (neuroblastoma, adherent): 0.933 and less than 5.29.
The matching figures for “NCI-H128 (small cell lung carcinoma, suspension)”: 0.971 and less than 5.29.
In the case of “NCI-H748 (small cell lung carcinoma, suspension)”, the AUC amounted to 0.946 and the pIC50 was less than 5.29.
The matching figures for “NCI-H1975 (lung adenocarcinoma, adherent)”: 0.509 and 6.47.
For the cell line “NCI-H2171 (small cell lung carcinoma, suspension)”, the AUC was 0.979 and the pIC50 is less than 5.29.
Take “NCI-H2196 (small cell lung carcinoma, adherent)”: the AUC stood at 0.947 and the negative-log IC50 (pIC50) was less than 5.29.
As for NK-92MI (lymphoid neoplasm, suspension), the AUC amounted to 0.55 and the pIC50 was 6.36.
As for SCC-3 (B-cell lymphoma, suspension), the AUC came to 0.874 and the pIC50 was 5.56.
The matching figures for “SHP-77 (small cell lung carcinoma, semi-adherent)”: 0.979 and less than 5.29.
For the cell line “SIG-M5 (acute myeloid leukaemia, suspension)”, the AUC was 0.502.
With SNU-C2B (large intestine, adherent), the AUC amounted to 0.733 and the pIC50 is 5.73.
The matching figures for “SU-DHL-1 (anaplastic large cell lymphoma, suspension)”: 0.77 and 5.84.
In the case of SW982 (soft tissue, adherent), the AUC turned out to be 0.634 and the pIC50 is 6.12.
For the cell line “TALL-1 (T-cell lymphoblastic leukaemia, suspension)”, the AUC was found to be 0.879 and the negative-log IC50 (pIC50) was 5.32.
The matching figures for TE-441-T (rhabdomyosarcoma, adherent): 0.989 and less than 5.29.

Compound in another experiment: CCNc1cc(NC2CCC(O)CC2)nc(Nc2ccc3c(ccn3Cc3ccccc3)c2)n1 [CGP-082996 (CINK4)]
The experiment is described as above. Particulars: top dose 5.12 µM; top dose inferred. How it is done:
as §1
BC-3 (B-cell lymphoma, suspension): the AUC was determined as 0.976 and the pIC50 is less than 5.29.
The matching figures for CAL-148 (breast, suspension): 0.976 and less than 5.29.
The matching figures for EW-12 (Ewing sarcoma, suspension): 0.965 and less than 5.29.
The matching figures for HCC1599 (breast, suspension): 0.946 and less than 5.29.
Turning to “HCC-33 (small cell lung carcinoma, adherent)”, the AUC was found to be 0.982 and the pIC50 is less than 5.29.
Regarding “HEL (acute myeloid leukaemia, semi-adherent)”, the AUC came out at 0.937 and the pIC50 is less than 5.29.
The matching figures for KP-N-YS (neuroblastoma, adherent): 0.96 and less than 5.29.
The matching figures for “NCI-H128 (small cell lung carcinoma, suspension)”: 0.912 and less than 5.29.
As to “NCI-H748 (small cell lung carcinoma, suspension)”, the AUC turned out to be 0.943 and the negative logarithm of the IC50 (pIC50) was less than 5.29.
The matching figures for “NCI-H1975 (lung adenocarcinoma, adherent)”: 0.924 and less than 5.29.
As for “NCI-H2171 (small cell lung carcinoma, suspension)”, the AUC turned out to be 0.96 and the negative-log IC50 (pIC50) was less than 5.29.
Take “NCI-H2196 (small cell lung carcinoma, adherent)”: the AUC was 0.97 and the pIC50 was less than 5.29.
The matching figures for NK-92MI (lymphoid neoplasm, suspension): 0.904 and less than 5.29.
For SCC-3 (B-cell lymphoma, suspension), the AUC was found to be 0.928 and the pIC50 is 5.38.
The matching figures for “SHP-77 (small cell lung carcinoma, semi-adherent)”: 0.973 and less than 5.29.
The matching figures for “SIG-M5 (acute myeloid leukaemia, suspension)”: 0.92 and 5.36.
SNU-C2B (large intestine, adherent): the AUC was 0.952 and the pIC50 is less than 5.29.
The matching figures for “SU-DHL-1 (anaplastic large cell lymphoma, suspension)”: 0.993 and less than 5.29.
The matching figures for SW982 (soft tissue, adherent): 0.923 and less than 5.29.
The matching figures for “TALL-1 (T-cell lymphoblastic leukaemia, suspension)”: 0.944 and less than 5.29.
TE-441-T (rhabdomyosarcoma, adherent): the AUC worked out at 0.986 and the pIC50 was less than 5.29.

Compound in a further experiment: O=C(c1cc(Cc2n[nH]c(=O)c3ccccc23)ccc1F)N1CCN(C(=O)C2CC2)CC1 [Olaparib]
The description is as above. As to conditions: top dose 5 µM; screen: GDSC drug entry 1017; top dose inferred. How it is done: as §1
In the case of D-392MG (glioma, adherent), the AUC is 0.933 and the pIC50 was less than 5.30.
The matching figures for D-542MG (glioma, adherent): 0.984 and less than 5.30.
HCC2998 (large intestine, adherent): the AUC worked out at 0.981 and the pIC50 is less than 5.30.

As a reminder, the pIC50 is the IC50 on a negative log10 scale, so that one unit is a factor of ten.
